# Test results: article PMC12136788
# The list shows a part of the results.
# T1: UNK ZnF1-3 (human, UniProt Q9C0B0 31-174)
# T1 sequence: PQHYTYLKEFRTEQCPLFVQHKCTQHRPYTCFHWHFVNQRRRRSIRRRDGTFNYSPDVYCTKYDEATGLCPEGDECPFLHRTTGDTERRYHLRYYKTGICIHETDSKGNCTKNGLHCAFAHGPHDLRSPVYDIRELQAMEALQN
# B1: chr11:34129765:34129766:+_ENSG00000135372_ENST00000257829|hu_mus|FALSE|FALSE (ssRNA)
# RNA: GGGAGUUCUACAGUCCGACGAUCCCAUUCUCAAUGAGAAUUCGAAUUCGGUUAUCCACCUUCUUCCGAUUCAUGAUGAAAAGCUAUCACUGCGCCCUGCUCCGGCCGACACCAGGCAGCUGCACAACGGAAGCACGUGAAGACCAACAGAGGAUUGAGCAUCA
# B2: chr8:104447970:104447971:+_ENSG00000164934_ENST00000297579|hu_hu|hu_hu_hu_mus_False|58_108 (ssRNA)
# RNA: GGGAGUUCUACAGUCCGACGAUCAUAUACCUCCCUGCUUCGGCUCUUGUCCACAGGAAAGAUUCUAAUAGACUUAUCGAAACUAGCAGACACAAAUUCCUUCCCAGUGGGAGAGUAGUCCACAUCAAGUACUGCAGACACGUGCAACAGAGGAUUGAGCAUCA
# B3: chr1:186326634:186326635:-_ENSG00000047410_ENST00000367478|hu_mus|FALSE|FALSE (ssRNA)
# RNA: GGGAGUUCUACAGUCCGACGAUCAGCGAAUAGCAGACGCUGAUUCUGCUGCUGAAGCUCUUCGAUGUUCCUGUAAGAUACUAGGUGCUGCGAAAUCACUUCAGACGAACUACUGAUGUCAGCAGAGCUGACCUCCUCAUCCCGCAACAGAGGAUUGAGCAUCA
# B4: chr4:83122263:83122264:-_ENSMUSG00000028484_ENSMUST00000107214|mus_mus|motif|central (ssRNA)
# RNA: GGGAGUUCUACAGUCCGACGAUCAUUGGAUUGUUUAGUUGAUGCCUGUUGACUUGAAAAUUUCACUUUCGGAUUGUUAUCGGUCUCCCACAAUCCUUCAUUAAAACCUUUCCGUUUAUUUGGUUUGCCAUACUUUUCCUUAUUCAACAGAGGAUUGAGCAUCA
# B5: chr6:53387275:53387276:-_ENSG00000001084_ENST00000229416|hu_mus|FALSE|FALSE (ssRNA)
# RNA: GGGAGUUCUACAGUCCGACGAUCUGUCCUCUCCCCCUUCUCCUGCAGAGUCUCAAGAACAUCGCCUCCAUUCAGUAACAACUGGACUUUCCUAUUUUCAUGAUCGAAGGACACCAACAUGUACUCCACCUCGUCACCCCACUUCAACAGAGGAUUGAGCAUCA
# B6: chr9:100852126:100852127:+_ENSMUSG00000037286_ENSMUST00000129269|mus_hu|FALSE|FALSE (ssRNA)
# RNA: GGGAGUUCUACAGUCCGACGAUCACCAUGUUCAGACUCAGGUUCUUGAAUCUGGUCUCCCAUGGGCCGACUGUUCUCCCGCAGUACAGUGGAUGUGAGUUGUGGUGCUGGCAGGGGGCCAGGAGUCUGAAUCAUGGUGUCAGUCAACAGAGGAUUGAGCAUCA
# B7: chr11:20202655:20202656:-_ENSMUSG00000020142_ENSMUST00000109594|mus_mus|motif|central (ssRNA)
# RNA: GGGAGUUCUACAGUCCGACGAUCAUAGACAUAAUUUGUAGUUUAGUUCCCCUUUAUCCAAACUCAGGUUUGCUUGGAGCGGAAAGCACACACAUACACACACACACUUGAUACAUAAAGUAUAUGUAAAUACAGAGGAAAAGACAACAGAGGAUUGAGCAUCA
# B8: chr6:41757443:41757444:+_ENSG00000214736_ENST00000398881|hu_mus|hu_hu_hu_mus_False|1_1 (ssRNA)
# RNA: GGGAGUUCUACAGUCCGACGAUCGAACCGUGCAGAGGCAACAUCUCAGCCGACACUGGGGGAUGGGGGGGCAGUGGGGGGGGGUUCAGGCAAGGAGAGGGAGUCAACUUCAGCUGCCACUCAGGUAGGAUCUUGUGGGGCACACAACAGAGGAUUGAGCAUCA
# B9: 39932699_39932819_2068_CDS_ENSG00000183337_ENST00000397354|human|control|control (ssRNA)
# RNA: GGGAGUUCUACAGUCCGACGAUCAAGGCCGUUCUCGUUUGCUUUGAAACUCGGUUCUGGGUUGCUGGCUUUGGCGCCCUUGCUGCUGGUGCUGCUACUGUGCUUGGCAGGAGUGGCCGGGGGCUGGCCCACGUGCUGAAUAACCAACAGAGGAUUGAGCAUCA
# B10: 137848543_137849276_803_3pUTR_ENSG00000120705_ENST00000360541|human|control|control (ssRNA)
# RNA: GGGAGUUCUACAGUCCGACGAUCAUAAACAGCUGCACAGCAGUCUCUGCUACUUUCCGAACAUAGUUAUGUCGCUUUUCCAUUCUUAAACGGGCAAAACGCAAGGCUGACUGACCUCCUCUACCGUGUUUCUUUGGGAGAUCCCAACAGAGGAUUGAGCAUCA
# B11: chr10:28872372:28872373:+_ENSG00000095787_ENST00000354911|hu_mus|motif|central (ssRNA)
# RNA: GGGAGUUCUACAGUCCGACGAUCUGCAUCUGAAGUUUUGCUUGGAUUAUUGCUUGGAUUAGAAGAAUGUGAAUUUGAACGGUGAAGUGCACUGUGGUUGUGUGAGUUUUCUUGUGGAGAGUAACUGGUCCCACCGUCCCUUUCCAACAGAGGAUUGAGCAUCA
# B12: chr5:138700276:138700277:+_ENSG00000120727_ENST00000265192|hu_mus|FALSE|FALSE (ssRNA)
# RNA: GGGAGUUCUACAGUCCGACGAUCUUCCAGCAUUUCUUGGAAACAGCGUUCAAUAAAUUCUUCUUCCCACAACUCCUCUUCUAUUUGUCUGUUGAAUUCCUCUUCAUUUUCCAUCCACAUGUACUCUGCAAAUGGAUUAUCCUCCAACAGAGGAUUGAGCAUCA
# B13: chr4:17845017:17845018:+_ENSG00000109805_ENST00000514176|hu_mus|hu_hu_hu_mus_False|48_68 (ssRNA)
# RNA: GGGAGUUCUACAGUCCGACGAUCGCUCUCUUAACUUGUAUCUUCAUUAAGGAACUCUGCAAGGUUAGUUUACUUUUUCUGUAGCGCGCGGUUUUGGGCUCGUCUGGGUAAUCUCAUCUUCAUUUCUGAUGGUGGUUCAUGAUCCAACAGAGGAUUGAGCAUCA
# B14: chr7:65705475:65705476:+_ENSG00000169902_ENST00000304842|hu_hu|hu_hu_hu_mus_True|38_98 (ssRNA)
# RNA: GGGAGUUCUACAGUCCGACGAUCUCUAUUCGGUGAUGGCAUUCCAUGGCAUGCUGGCCCAGGUAAAACACGGUCACAGAACUAAUCACCAGACACGCCAAUAGUAAGUUCUGCUUCAGCUUCCCAACCAUCUUGAUGUGGUUACAACAGAGGAUUGAGCAUCA
# B15: chr22:36164377:36164378:-_ENSG00000100320_ENST00000405409|hu_mus|motif|central (ssRNA)
# RNA: GGGAGUUCUACAGUCCGACGAUCACGGCCCUCUACCACGGUGCCGUGCAAUUUCUCCCUGGCCCUGUCUGCAUCAGCACGGUUCUCGAAAGUUACGAACCCGAAUCCCUUGGAGCCGCGCUCAUUAAAGAUUAUUUCCACAUCCAACAGAGGAUUGAGCAUCA
# B16: 180448006_180449495_405_CDS_ENSMUSG00000027573_ENSMUST00000029090|mouse|control|control (ssRNA)
# RNA: GGGAGUUCUACAGUCCGACGAUCCAUCUCCCGAAUCUUGAUUCGCUCAUCAAGUGUUUCUAGGUCCACACUUGGUUCGAUCCCAGACUCCAUCCGAAAUUUCUCUGCUGCUUCCUUAAAGCCCUCUGUGACUAGGUAGUUCAUCAACAGAGGAUUGAGCAUCA
# B17: chr8:26227902:26227903:+_ENSG00000221914_ENST00000315985|hu_hu|FALSE|FALSE (ssRNA)
# RNA: GGGAGUUCUACAGUCCGACGAUCGGAAUGCCAACCCUAAUUCACUUUGUCUUGAAAUAUAUACAGAUUGUUUGUAGUAGCUACGGCAAUGAUAUUUUCCUUGGGGUGCCAGGCUGUGUGAAGGAUUUUCUUAUUGAAGUCUAGCAACAGAGGAUUGAGCAUCA
# B18: chr1:39469031:39469032:+_ENSG00000174574_ENST00000432648|hu_hu|FALSE|FALSE (ssRNA)
# RNA: GGGAGUUCUACAGUCCGACGAUCAUACCGUCGCAUAAUCUGAUCAUGUGUGAAUUUCACAAAAGAUUCAUAUUGUUCUGCUAGUUUGGUAUUGAGGAUUUGCUCAUACUCCUCCCGAAUUUUAUCUUCAUAGUCUUUUAAGAGCAACAGAGGAUUGAGCAUCA
# B19: chrX:69798090:69798091:-_ENSMUSG00000031343_ENSMUST00000055966|mus_mus|mus_mus_mus_hu_False|18_38 (ssRNA)
# RNA: GGGAGUUCUACAGUCCGACGAUCAAGUCCCCGGGUUCUUGUCGUCUUGAUUCCCCUUGACCAGUGGUUCCAGGGAGAAUAUUAAUCAGGAAAAGAAGUACAACUCUGGUCAUGUAAAAGUGCCACAUUUGUGUGAUUAUCAUCCAACAGAGGAUUGAGCAUCA
# B20: chr15:80429895:80429896:+_ENSG00000086666_ENST00000558494|hu_hu|FALSE|FALSE (ssRNA)
# RNA: GGGAGUUCUACAGUCCGACGAUCUCAAGAAUUUUGUAUUCCAGCAGGAGUUCAAAUCUUUUGGAUCUUUUCACCAACAACUACUGGAUUUUCUUUUCUGAUUUUCUCAGCAGCAUCGGCUUUGUAAUUGUAAGAGCAAUUGUGCAACAGAGGAUUGAGCAUCA
# B21: chr7:149068622:149068623:-_ENSMUSG00000025139_ENSMUST00000001950|mus_hu|mus_mus_mus_hu_False|28_48 (ssRNA)
# RNA: GGGAGUUCUACAGUCCGACGAUCGUGAGGCCUCUGAGUGUGGCUUGUGGUCUGUCCUGGGUUAGAGUUGUUAAUAUCACGGAACAUACCACUUAAGACGUUCCAGUCUGCCUGACUACCUUCAUUCCCAAUGGAGAAGAAAUCCAACAGAGGAUUGAGCAUCA
# B22: chr1:149875238:149875239:-_ENSG00000159164_ENST00000369146|hu_mus|motif|central (ssRNA)
# RNA: GGGAGUUCUACAGUCCGACGAUCUGUGGUUAGUUUAACUUCCUUUUAACUUUUUUUUUUUUUAACAUUUUACAAACAGCGGAAAACGGCAACACGUCACAGCUACGUUGGGAGUGGAGAGAGAGUACCAAAGAAAGCAGCCACCAACAGAGGAUUGAGCAUCA
# Biological target: T1, UNK ZnF1-3
# Test: nsRBNS (natural sequence RNA bind-n-seq); RBNS binding buffer (assumed for nsRBNS): 25 mM Tris pH 7.5, 150 mM KCl, 3 mM MgCl2, 0.01% Triton X-100, 500 ug/ml BSA, 20 U/ml SUPERase-In, 4 C; UNK is unkempt and MSI1 is Musashi-1; names of the RNAs are library labels; protein concentration not given here; high values mean tight binding
row,Binder,binding signal [enrichment R]
1,B1,1.24
2,B2,0.956
3,B3,0.823
4,B4,0.284
5,B5,1.38
6,B6,0.42
7,B7,1.7
8,B8,1.07
9,B9,0.721
10,B10,0.993
11,B11,1.21
12,B12,0.632
13,B13,0.285
14,B14,0.594
15,B15,1.04
16,B16,0.862
17,B17,1.07
18,B18,0.619
19,B19,0.838
20,B20,0.423
21,B21,0.574
22,B22,2.04
